# Data from PubChem BioAssay AID2147 (National Center for Advancing Translational Sciences (NCATS), 2009).
# Where “and” joins values, the source holds several entries; their conditions need not be identical. Identical values can stand only once. The campaign covered roughly 230,000 compounds. About 3,600 (1.6%) were called active. Inconclusive means that the source gave no clear call. Such entries were picked first, then a sample of the others. The call rests on the fitted dose curve; in most records, active means well fitted inhibition curve with a large enough effect (not every such curve was filed as active); inconclusive means small, poorly fitted or top-dose-only effect, or another doubt; inactive means no such curve, though single readings can be large or run the other way. Potencies of inconclusive entries are doubtful fits and often do not repeat.
# Target: Lysine-specific demethylase 4E (Homo sapiens) (UniProt B2RXH2)
# UniProt B2RXH2, sequence (B2RXH2 whole entry, looked up, the tested form may be a part): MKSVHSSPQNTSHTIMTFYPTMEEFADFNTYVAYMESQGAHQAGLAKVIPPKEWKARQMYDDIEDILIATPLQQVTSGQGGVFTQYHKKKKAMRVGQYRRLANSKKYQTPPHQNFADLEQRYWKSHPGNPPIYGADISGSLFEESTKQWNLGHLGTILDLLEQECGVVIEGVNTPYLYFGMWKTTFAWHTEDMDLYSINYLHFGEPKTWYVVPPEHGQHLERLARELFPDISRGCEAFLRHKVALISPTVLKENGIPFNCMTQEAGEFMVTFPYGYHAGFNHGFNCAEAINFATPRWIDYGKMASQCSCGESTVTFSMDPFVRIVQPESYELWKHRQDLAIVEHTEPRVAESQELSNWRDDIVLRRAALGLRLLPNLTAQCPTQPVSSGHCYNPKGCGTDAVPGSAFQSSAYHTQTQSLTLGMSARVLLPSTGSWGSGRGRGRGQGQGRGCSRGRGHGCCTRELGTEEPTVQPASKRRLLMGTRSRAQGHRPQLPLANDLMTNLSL
# Assay: qHTS Assay for Inhibitors of Human Jumonji Domain Containing 2E (JMJD2E)
# Conditions: JMJD2E catalytic domain, FDH-coupled NADH fluorescence (FDH is formaldehyde dehydrogenase); series mostly up to 57.1 µM
# Further: nearly all actives have a fitted effect of over 50% in size.
# Potency means the concentration at half of the fitted maximal effect; tags describe the fitted curve by direction and shape.
row,SMILES,Potency
1,CSc1nc(N2CCOCC2)c2c3c(sc2n1)CCCC3,"inconclusive: 35.5 µM [inhibitor, single point]"
2,Cc1ccc2cc(C#N)c(NCCNC(=S)NCCCN(C)C)nc2c1C,"inconclusive: 35.5 µM [inhibitor, partial curve]"
3,COc1ccccc1N(C)S(=O)(=O)c1ccc(C(=O)NCC(C)C)cc1,inactive
4,CC1CN(C(=O)c2scc3c2OCCO3)CC(C)O1 (centres undefined),inactive
5,O=C1S/C(=C\c2ccc(O)c([N+](=O)[O-])c2)C(=O)N1c1ccccc1Cl,inactive
6,COc1ccc(Nc2ccc(Nc3ccc(OC)cc3)nn2)cc1,inactive
7,COc1ccc(N2C(=O)CC(Sc3nc(C)cc(C)c3C#N)C2=O)cc1 (centres undefined),"inconclusive: 22.4 µM [inhibitor, single point]"
8,COc1ccc(CCNC(=O)C2CC(c3cccc([N+](=O)[O-])c3)=NO2)cc1 (centres undefined),inactive
9,COc1ccc(-c2noc(-c3ccc4c(c3)OCO4)n2)cc1,"inconclusive: 7.08 µM [inhibitor, single point]"
10,O=C(O)COc1cccc2ccccc12,"inconclusive: 6.31 µM [inhibitor, single point]"
11,O=C(Cn1cnc2c(cnn2-c2ccc(Cl)cc2)c1=O)N1CCN(c2ccccc2)CC1,"inconclusive: 3.16 µM [inhibitor, single point]"
12,C=CCn1c(=S)[nH]c2sccc2c1=O,"inconclusive: 35.5 µM [inhibitor, single point]"
13,Cn1c2c(c(=O)n(C)c1=O)C1(C(=O)Nc3ccccc31)C(C#N)=C(N)O2 (centres undefined),inactive
14,Cc1ccnc(NS(=O)(=O)c2ccc(CC(C)C)cc2)c1,"inconclusive: 15.8 µM [inhibitor, partial curve]"
15,Cc1cc2ncn(S(=O)(=O)N(C)C)c2cc1C,"inconclusive: 39.8 µM [inhibitor, single point]"
16,CC(C)c1ccc(-c2nc(N3CCCCC3)[nH]c(=O)c2C#N)cc1,"inconclusive: 8.91 µM [inhibitor, single point]"
17,CCOC(=O)c1ccc(NC(=O)Cn2nnc(-c3ccccc3)n2)cc1,"inconclusive: 25.1 µM [inhibitor, single point]"
18,COc1ccc2c(c1)c(C(=O)N/N=C/c1ccc(Cl)cc1)c(C)n2C,inactive
19,COc1ccc(C(=O)Nc2ccc(NC(=O)c3cccs3)cc2)cc1Cl,"inconclusive: 28.2 µM [inhibitor, partial curve]"
20,O=C(c1ccc2c(=O)n(Cc3ccco3)c(=S)[nH]c2c1)N1CCN(c2ccccc2)CC1,inactive
21,Cc1ccc2c(c1)c1nnc(SCC(=O)Nc3cccc(Cl)c3C)nc1n2CC(=O)O,inactive
22,CCOC(=O)CSc1nc(N)c(C#N)cc1C#N,"inconclusive: 31.6 µM [inhibitor, partial curve]"
23,COCC(C)OC(=O)c1c(N)n(-c2ccc(OC)c(OC)c2)c2nc3ccccc3nc12 (centres undefined),"inconclusive: 39.8 µM [inhibitor, single point]"

row,SMILES,Potency
1,Nc1ccccc1C(=O)NCCN1CCNC1=O,"inconclusive: 22.4 µM [inhibitor, partial curve]"
2,CCCSc1nc2sc3c(c2c(=O)[nH]1)CCN(Cc1ccccc1)C3,"inconclusive: 22.4 µM [inhibitor, partial curve]"
3,CC(C)Sc1nnc(Cn2c(=O)sc3ccccc32)n1-c1ccccc1,inactive
4,Cc1onc(-c2ccccc2Cl)c1C(=O)N1CCN(c2ncccn2)CC1,"inconclusive: 31.6 µM [inhibitor, single point]"
5,Cc1c(CCOC(=O)CC23CC4CC(CC(C)(C4)C2)C3)sc[n+]1Cc1ccc([N+](=O)[O-])cc1,active: 10 µM
6,COc1ccc(NC(=O)CN(c2ccc([N+](=O)[O-])cc2)S(=O)(=O)c2ccccc2)cc1,inactive
7,CCOc1ccc(/C=C2/SC(=S)N(C(C(=O)O)c3ccccc3)C2=O)cc1OCC (centres undefined),"inconclusive: 14.1 µM [inhibitor, partial curve]"
8,Cc1cc2nc(-c3ccc(SCc4ccc(C#N)cc4)nc3)[nH]c2cc1C,"inconclusive: 28.2 µM [inhibitor, partial curve]"
9,CCC(CC)c1nnc(NC(=O)c2cc(C(=O)OC)cc([N+](=O)[O-])c2)s1,inactive
10,Cc1ccc2nc(-c3ccccc3)cc(C(=O)O)c2c1,"inconclusive: 25.1 µM [inhibitor, single point]"
11,CCOC(=O)c1sc(NC(=O)c2ccc(Br)o2)cc1C,"inconclusive: 31.6 µM [inhibitor, single point]"
12,CC(C)OC(=O)/C(=C\c1ccc2c(c1)c1ccccc1n2C)NC(=O)c1ccccc1,"inconclusive: 31.6 µM [inhibitor, single point]"
13,CN1CCN(CCC(=O)N/N=C/C=C2\N(C)c3ccccc3C2(C)C)CC1,"inconclusive: 35.5 µM [inhibitor, single point]"
14,CCOc1cccc(C2NC(=S)NC(C)=C2C(=O)Nc2ccccc2)c1 (centres undefined),inactive
15,O=C(COc1cccc2cccnc12)N/N=C/c1ccccc1O,active: 7.94 µM
16,NC(=S)N(c1ccccc1)c1ccccc1,inactive
17,COC(=O)CCCC1=CC2=CC(=O)C(C)(OC(=O)CCc3ccccc3)C(=O)C2=CO1 (centres undefined),"inactive and inconclusive: 35.5 µM [inhibitor, single point]"
18,CCn1nc(C)c(CN2CCc3c([nH]c4ccccc34)C2c2ccc(F)c(OC)c2)c1C (centres undefined),"inconclusive: 31.6 µM [inhibitor, single point]"
19,COCCN(C(=O)CSc1nnc2cc(C)c3ccccc3n12)c1c(N)n(Cc2ccccc2)c(=O)[nH]c1=O,"inconclusive: 39.8 µM [inhibitor, single point]"
20,CCN(CC)N=Nc1ccc(S(N)(=O)=O)cc1,inactive
21,O=C1NC(NS(=O)(=O)c2ccc(Cl)cc2)(C(F)(F)F)C(=O)N1CCc1ccccc1 (centres undefined),inactive
22,COc1ccc(Br)cc1C1NC(=O)c2c(sc3c2CCN(C)C3)N1 (centres undefined),"inconclusive: 25.1 µM [inhibitor, partial curve]"
23,CCCCn1c(=O)[nH]c(=O)c2c1nc(-c1ccc(-c3ccccc3Br)o1)n2CC,"inconclusive: 35.5 µM [inhibitor, partial curve]"

row,SMILES,Potency
1,COC(=O)C1=C(C)NC(C)=C(C(=O)OC)C1c1cc2ccc(C)cc2[nH]c1=O,"inconclusive: 31.6 µM [inhibitor, single point]"
2,CC(=O)Nc1ccc(C(=O)OCC(=O)Nc2c(F)cccc2F)cc1,"inconclusive: 39.8 µM [inhibitor, single point]"
3,O=C(Nc1nccs1)c1cc2c(s1)CCCCC2,"inconclusive: 7.08 µM [inhibitor, single point]"
4,CCn1c(SCC(=O)c2ccccc2)nc2sc3c(c2c1=O)CCN(C)C3,"inconclusive: 31.6 µM [inhibitor, partial curve]"
5,O=C(Nc1ccc2c(c1)oc1ccc(S(=O)(=O)N3CCCC3)cc12)C1CC1,"inconclusive: 25.1 µM [inhibitor, single point]"
6,CCOC(=O)c1c(CN(CC)CC)oc2ccc(OC)cc12,"inconclusive: 28.2 µM [inhibitor, single point]"
7,COc1ccc(NC(=S)NNC(=O)CNc2ccc(Cl)cc2)cc1,"inconclusive: 39.8 µM [inhibitor, single point]"
8,Nc1c2c(nc3ccc(Br)cc13)N(C1CCCCC1)CC2,"inconclusive: 22.4 µM [inhibitor, partial curve]"
9,CC(Sc1nnc(Nc2ccccc2)s1)C(=O)Nc1nc(-c2ccccc2)cs1 (centres undefined),inactive
10,CC(=O)N[C@@H](C)C(=O)N1CCN(S(=O)(=O)c2ccc(Cl)cc2)CC1,inactive
11,Cc1ccc2[nH]c3c(N4CCc5ccccc5C4)ncnc3c2c1,"inconclusive: 28.2 µM [inhibitor, partial curve]"
12,Cc1cccc(N2CCN(c3ccc(N4C(=O)CCCC4=O)cc3[N+](=O)[O-])CC2)c1C,inactive
13,COc1cc(OC)cc(C(=O)N/N=C/c2ccc(OC)c(COc3ccc4ccccc4c3)c2)c1,"inconclusive: 25.1 µM [inhibitor, partial curve]"
14,CCc1cc2c(=O)c(-c3cnn(-c4ccccc4)c3)coc2c(CN2CCOCC2)c1O,"inconclusive: 3.55 µM [inhibitor, full curve]"
15,N#Cc1c2c(c(NCCN3CCOCC3)n3c1nc1ccccc13)CCCC2,"inconclusive: 25.1 µM [inhibitor, single point]"
16,Cn1c(C(=O)NCCC2=CCCCC2)cc2c(=O)n3ccccc3nc21,"inconclusive: 7.08 µM [inhibitor, partial curve]"
17,COC(=O)C1=C(C)NC(C)=C(C(=O)OC)C1c1ccccn1,"inconclusive: 35.5 µM [inhibitor, single point]"
18,O=C(CSc1nnnn1-c1ccccc1)N1CCCc2ccccc21,inactive
19,COc1cc(OC)c2c(C)cc(=O)oc2c1C(CCN1CCN(c2ccccc2)CC1)c1ccc2c(c1)OCO2 (centres undefined),"inconclusive: 25.1 µM [inhibitor, partial curve]"
20,COc1ccc(-c2cc(C(F)(F)F)n3ncc(C(=O)N4CCCCC4c4cccnc4)c3n2)cc1 (centres undefined),"inconclusive: 20 µM [inhibitor, partial curve]"
21,COc1ccc(C/C(C)=N/NC(=S)Nc2ccccc2)cc1,inactive
22,Cc1ccc(C(=O)OCC(=O)Nc2cccc(Cl)c2C)c(O)c1,"inconclusive: 0.708 µM [inhibitor, full curve]"
23,COc1ccc(-n2cc(CN3CCCC3)c(-c3cccc(F)c3)n2)cc1,"inconclusive: 31.6 µM [inhibitor, partial curve]"
